# The whole screen tested about 310,000 compounds, of which about 2,200 (0.71%) showed an effect of 50% or more. Effects have a minus sign here. Some of the results follow.
# Molecular target: human ether-à-go-go-related gene (hERG) potassium channel (human, UniProt Q12809)
# Experiment: primary screen, population patch clamp on CHO cells stably expressing hERG
# Sequence of human ether-à-go-go-related gene (hERG) potassium channel (Q12809 whole entry, looked up): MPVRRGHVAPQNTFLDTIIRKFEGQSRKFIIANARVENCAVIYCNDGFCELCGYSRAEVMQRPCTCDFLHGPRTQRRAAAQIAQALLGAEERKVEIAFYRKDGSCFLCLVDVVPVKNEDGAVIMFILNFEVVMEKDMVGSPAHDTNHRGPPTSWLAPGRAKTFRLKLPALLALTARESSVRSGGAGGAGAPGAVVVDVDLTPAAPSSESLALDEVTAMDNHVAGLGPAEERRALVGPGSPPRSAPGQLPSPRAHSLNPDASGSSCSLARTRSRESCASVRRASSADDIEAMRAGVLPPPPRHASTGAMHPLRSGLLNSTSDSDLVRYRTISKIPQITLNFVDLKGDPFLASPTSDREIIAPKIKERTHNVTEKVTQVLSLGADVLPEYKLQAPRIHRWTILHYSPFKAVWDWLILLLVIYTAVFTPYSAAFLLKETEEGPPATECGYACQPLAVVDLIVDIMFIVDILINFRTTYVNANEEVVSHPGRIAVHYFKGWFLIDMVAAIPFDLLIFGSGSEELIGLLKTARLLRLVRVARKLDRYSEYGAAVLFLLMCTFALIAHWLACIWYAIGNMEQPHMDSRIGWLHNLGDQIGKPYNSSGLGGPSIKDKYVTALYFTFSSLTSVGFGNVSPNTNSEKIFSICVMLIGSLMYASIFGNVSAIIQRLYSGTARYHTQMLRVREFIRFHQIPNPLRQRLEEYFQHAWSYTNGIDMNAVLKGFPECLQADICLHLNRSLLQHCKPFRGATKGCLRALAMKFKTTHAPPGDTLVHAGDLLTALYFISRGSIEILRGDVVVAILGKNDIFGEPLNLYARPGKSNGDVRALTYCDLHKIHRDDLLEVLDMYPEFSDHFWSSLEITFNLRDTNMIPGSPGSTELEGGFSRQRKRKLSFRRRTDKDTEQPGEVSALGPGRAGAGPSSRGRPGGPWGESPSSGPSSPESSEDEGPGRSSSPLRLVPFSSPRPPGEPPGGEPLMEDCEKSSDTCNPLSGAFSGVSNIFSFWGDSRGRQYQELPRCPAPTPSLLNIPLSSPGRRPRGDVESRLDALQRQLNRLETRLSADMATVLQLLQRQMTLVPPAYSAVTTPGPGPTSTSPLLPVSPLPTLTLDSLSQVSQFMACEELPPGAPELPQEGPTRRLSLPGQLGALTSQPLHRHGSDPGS
row,SMILES,"hERG current change (%, negative = inhibition) at 1uM [%]"
1,CCOc1ccc(Nc2nc3ccccc3n3cnnc23)cc1,9.19
2,CCN(CC)CCN(C(=O)c1ccc2ncsc2c1)c1nc2cc3c(cc2s1)OCO3.Cl,-20.5
3,CC1CCCC(C(=O)O)N1C(=O)CCSC(=O)c1ccccc1 (centres unmarked),6.24
4,COc1cc(N2CCOCC2)ccc1C=C1C(=O)NC(=O)NC1=O,15.4
5,CCOc1ccccc1NC(=O)CSc1nc(=O)n(CCCN2CCOCC2)c2c1CCCC2,7.97
6,COc1cccc(NC(=O)c2sc(NC(=O)c3ccncc3)nc2C)c1,9.78
7,O=C(CNC(=O)c1ccccc1Br)N/N=C/c1ccc(O)cc1,4.02
8,Cc1ccc(NS(=O)(=O)c2ccc(C(=O)N3CCCC(C(F)(F)F)C3)cc2)cc1 (centres unmarked),3.73
9,CC1CN(c2ccc([N+](=O)[O-])cc2Cl)CCN1.Cl (centres unmarked),-3.16
10,CN(Cc1ccccc1)C(=O)c1ccc(NC(=O)Cc2cccc(NC(=O)C3CCN(C(=O)C4CC4)CC3)c2)cc1,5.63
11,CCN(C1CCCCC1)S(=O)(=O)c1ccc(S(=O)(=O)NCCc2ccncc2)cc1,14.1
12,CCOC(=O)Cc1csc(N/N=C\c2ccccc2OC)n1,9.92
13,COC(=O)CSc1nc2ccc(NC(=O)c3ccccc3C(=O)N3CCOCC3)cc2s1,11.6
14,COc1ccc(OC(C)C(=O)Nc2cccnc2)cc1 (centres unmarked),9.01
15,O=C(COC(=O)/C=C/c1ccc(S(=O)(=O)N2CCc3ccccc32)cc1)NC1CCS(=O)(=O)C1 (centres unmarked),9.59
16,COc1ccc(-c2cccc(NS(=O)(=O)c3cc([N+](=O)[O-])ccc3Cl)c2)nn1,12.7
17,O=C(c1ccc(S(=O)(=O)Nc2ccccc2)cc1)N1CCC1,8.86
18,CCN(CC)c1nc2ccccc2n2cnnc12,-5.28
19,CSc1ncc(F)c(N(CCO)CCO)n1,9.71
20,Cc1cc2cc(CNC(=O)C3CC3)ccc2n1C,1.25
21,O=C(OCCOc1ccccc1)c1n[nH]c2ccccc12,8.16
22,CC1CCN(CCCNC(=O)c2cn(C)c3ccc(S(=O)(=O)N4CCCC4)cc3c2=O)CC1,10.7

row,SMILES,"hERG current change (%, negative = inhibition) at 1uM [%]"
1,CCC(CO)n1c(SCc2cc([N+](=O)[O-])cc3c2OCOC3)nc2ccccc2c1=O (centres unmarked),11
2,CCCCNC(=S)Nc1cc(S(=O)(=O)N2CCCCC2)ccc1C,9.26
3,CC(OC(=O)COc1ccccc1)C(=O)NC1CCCC1 (centres unmarked),11.7
4,CCCCNc1c(N2CCN(C(=O)OCC)CC2)c(=O)c1=O,6.16
5,CCOC(=O)N1CCC(NC(=O)C(NS(=O)(=O)c2cccc3nsnc23)c2ccccc2)CC1 (centres unmarked),0.671
6,N#Cc1c(N)nc(SCc2ccccn2)c(C#N)c1-c1cccs1,9.69
7,COc1cc(CNC2CCCC2)cc(Cl)c1OCc1ccccc1Cl.Cl,3.43
8,COc1ccc(NC(=S)N(Cc2ccc(N(C)C)cc2)Cc2ccco2)cc1,-6.36
9,COc1cc(OC)cc(-c2nnc(SCC(=O)Nc3ccc(C(=O)O)cc3)s2)c1,18
10,Clc1ccc(-c2c[n+](Cc3ccc(Br)cc3)c3n2CCCCC3)cc1.[Br-],-29
11,CCn1nccc1C(=O)Nc1cc(Cl)ccc1Cl,0.897
12,COC(=O)c1ccccc1NC(=O)c1ccc2c(c1)C(=O)N(Cc1ccco1)C2=O,-12.4
13,Cc1cc(OCC(=O)N[C@@H](Cc2c[nH]c3ccccc23)C(=O)O)c2c(C)c(C)c(=O)oc2c1,-5.73
14,CCN(C(=O)COC(=O)c1cccc(NS(=O)(=O)c2ccc(F)c(F)c2)c1)C1CCS(=O)(=O)C1 (centres unmarked),14.3
15,CC(C(=O)Oc1ccc2c(c1)OCO2)N1C(=O)c2ccccc2C1=O (centres unmarked),-1.93
16,COc1ccc(CCNC(=O)C(=O)c2c(C)[nH]c3ccccc23)cc1,11
17,COC(=O)C1=C(C)N(C(C)c2ccccc2)C(=O)/C1=C\c1ccco1 (centres unmarked),11.4
18,CCCc1nc(-c2cc3ccc(C)cc3[nH]c2=O)no1,8.99
19,CCC1CCCCN1CCCNC(=O)CCC(=O)N1CC(C)Oc2ccccc21 (centres unmarked),7.01
20,O=c1[nH]nc(SCc2nnc(-c3ccc([N+](=O)[O-])cc3)o2)n1C1CCCCC1,8.98
21,O=C(CCS(=O)(=O)c1ccc(F)cc1)Nc1nc(-c2ccncc2)cs1,16.6
22,CCC(C)(C(=O)Nc1ccccc1C)N(C(=O)CNC(C)=O)c1ccc(C)cc1 (centres unmarked),11.5
